These are yes or no findings as the source states them, for the method shown. Some results given as binding are weak or reduced against the parent protein; the word gives no strength.
T1: LIN-2A (LIN-2/CASK, long isoform), full length (C. elegans) (UniProt P54936)
T1 sequence: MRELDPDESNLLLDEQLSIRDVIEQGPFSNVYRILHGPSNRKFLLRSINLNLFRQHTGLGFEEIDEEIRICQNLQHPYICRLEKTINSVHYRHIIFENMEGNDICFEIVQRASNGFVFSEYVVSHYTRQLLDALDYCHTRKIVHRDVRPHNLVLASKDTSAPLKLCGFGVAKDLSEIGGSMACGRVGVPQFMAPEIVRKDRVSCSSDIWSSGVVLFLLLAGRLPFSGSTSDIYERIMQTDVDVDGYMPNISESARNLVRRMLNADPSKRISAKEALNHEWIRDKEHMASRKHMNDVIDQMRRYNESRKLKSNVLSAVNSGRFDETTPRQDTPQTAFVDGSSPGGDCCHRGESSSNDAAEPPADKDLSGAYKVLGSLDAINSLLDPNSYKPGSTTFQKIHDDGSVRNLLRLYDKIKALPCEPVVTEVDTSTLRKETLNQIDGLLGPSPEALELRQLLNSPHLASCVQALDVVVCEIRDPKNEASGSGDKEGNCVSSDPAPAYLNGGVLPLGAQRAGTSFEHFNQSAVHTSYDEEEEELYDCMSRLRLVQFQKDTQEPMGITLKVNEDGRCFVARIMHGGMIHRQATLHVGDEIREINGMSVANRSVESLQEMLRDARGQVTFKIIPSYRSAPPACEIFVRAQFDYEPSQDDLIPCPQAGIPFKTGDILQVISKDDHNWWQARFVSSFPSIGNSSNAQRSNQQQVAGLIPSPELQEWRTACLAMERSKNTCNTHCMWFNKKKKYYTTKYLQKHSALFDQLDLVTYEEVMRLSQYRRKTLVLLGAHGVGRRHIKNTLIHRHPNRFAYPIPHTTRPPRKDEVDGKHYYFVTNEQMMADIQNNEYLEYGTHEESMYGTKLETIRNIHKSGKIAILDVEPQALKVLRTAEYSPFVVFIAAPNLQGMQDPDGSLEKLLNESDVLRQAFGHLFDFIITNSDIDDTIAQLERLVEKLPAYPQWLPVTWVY

T2: LIN-2A PDZ domain (C. elegans) (UniProt P54936)
T2 sequence: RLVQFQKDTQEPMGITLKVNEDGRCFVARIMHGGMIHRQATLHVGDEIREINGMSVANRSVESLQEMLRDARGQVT

T3: LIN-2A SH3 domain (C. elegans) (UniProt P54936)
T3 sequence: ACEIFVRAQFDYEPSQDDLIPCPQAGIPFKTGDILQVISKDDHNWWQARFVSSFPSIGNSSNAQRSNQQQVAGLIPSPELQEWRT


Key:
Test in all cases: two-hybrid; Matchmaker Gold Yeast Two-Hybrid System; pGBKT7 baits and pGADT7 preys co-transformed into Y2HGold cells; transformants from SD-Leu-Trp restreaked onto SD-Leu-Trp-His-Ade plates
[1] = molecular target: T1, LIN-2A (LIN-2/CASK, long isoform), full length (C. elegans)
[2] = molecular target: T2, LIN-2A PDZ domain (C. elegans)
[3] = molecular target: T3, LIN-2A SH3 domain (C. elegans)

| binding [1] | binding [2] | binding [3] | Binder |
| --- | --- | --- | --- |
| binds | no binding | binds | ACR-16 second cytoplasmic loop, TM3-4 (aa315-472) (domain or fragment, UniProt P48180 315-472) NLHYRTPETHDMGPWTRNLLLYWIPWILRMKRPGHNLTYASLPSLFSTKPNRHSESLIRNIKDNEHSLSRANSFDADCRLNQYIMTQSVSNGLTSLGSIPSTMISSNGTTTDVSQQATLLILHRIYHELKIVTKRMIEGDKEEQACNNWKFAAMVVDR |
| binds | – | binds | UNC-29 second cytoplasmic loop, TM3-4 (aa318-445) (domain or fragment, UniProt P48181 318-445) YFRGPRTHRMPQWVRVVFLQFLPKLVCMKRPKSASERSAVRSGMAQLPGVGQFTLSPSAHHPLCPSADDRTTTIRNTASNETSAYYPLSTDALRAIDAIEYITEHLKRDEQHKSFRDDWKYVAMIIDR |
